Assay results reported in the supplement of paper PMC3334620.
The full ranking holds about 33,000 sequences; the median of “E-score (-0.5 to 0.5)” is about -0.032, and the highest 2% start at about 0.36. This is one part of the list.

These sequences were tested against T1, Sko1 (UniProt Q02100) (assay: PBM E-score (8-mer binding enrichment) (E-score (-0.5 to 0.5)); higher = stronger / more preferred TF binding; most listed sequences are background and not binding sites). Conditions: protein concentration: 200 nM; construct: GST-full length.
T1 sequence: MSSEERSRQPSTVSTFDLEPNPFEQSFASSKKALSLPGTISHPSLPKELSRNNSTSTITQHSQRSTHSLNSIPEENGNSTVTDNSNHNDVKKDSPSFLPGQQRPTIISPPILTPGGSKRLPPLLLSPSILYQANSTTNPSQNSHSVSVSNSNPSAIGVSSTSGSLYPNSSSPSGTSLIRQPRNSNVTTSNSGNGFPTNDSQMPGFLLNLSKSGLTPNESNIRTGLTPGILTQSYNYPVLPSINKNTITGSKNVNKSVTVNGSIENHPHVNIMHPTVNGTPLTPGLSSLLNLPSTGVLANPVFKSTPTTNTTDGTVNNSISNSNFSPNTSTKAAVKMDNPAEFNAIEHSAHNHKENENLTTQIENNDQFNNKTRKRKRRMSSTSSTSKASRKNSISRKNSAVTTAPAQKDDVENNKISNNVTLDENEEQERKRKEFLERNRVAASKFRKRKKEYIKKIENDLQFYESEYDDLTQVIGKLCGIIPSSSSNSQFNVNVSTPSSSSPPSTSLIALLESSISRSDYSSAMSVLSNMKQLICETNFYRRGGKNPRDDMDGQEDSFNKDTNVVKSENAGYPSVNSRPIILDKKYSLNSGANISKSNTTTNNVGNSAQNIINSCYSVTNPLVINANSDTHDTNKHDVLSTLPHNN
Experimental: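 Universal 'all 10-mer' protein binding microarrays (Agilent AMADID 015681) probed with GST-tagged S. cerevisiae TFs (full-length or DBD) made by in vitro transcription/translation (PURExpress), about 100-200 nM. Bound TF was detected with fluorescent anti-GST. Each ungapped 8-mer (which stands for itself and its reverse complement) is scored by the PBM enrichment score (E-score), a modified Wilcoxon-Mann-Whitney statistic from -0.5 to +0.5, computed with the Universal PBM Analysis Suite. Scale: above 0.35 generally sequence-specific binding.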

Row | Sequence | PBM E-score
1 | ACGAAAGT | 0.287
2 | GCAAGCGC | -0.139
3 | AACCAATC | -0.0284
4 | AAGCGAGC | -0.107
5 | TGGACCCA | -0.209
6 | ATACATAG | 0.146
7 | CATGACAG | 0.0237
8 | ATAAAACC | -0.0531
9 | CTACGCGA | 0.167
10 | AACTTCAA | 0.0208
11 | ATAAGAGA | 0.0988
12 | GTGAAATA | 0.16
13 | CAGCTTAA | 0.0939
14 | GAACCTGA | 0.0507
15 | ACACGACT | 0.161
16 | GGACAACA | -0.107
17 | ACCTTCGA | -0.189
18 | CATCGCAA | 0.00796
19 | AGATACAT | 0.211
20 | TCACGGGA | 0.00178
21 | TGCGCCCA | -0.205
22 | TGACAAAA | 0.252
23 | CCCGTCAG | -0.214
24 | AACTGTGA | 0.101
25 | GGAAAGTA | 0.125

Row | Sequence | PBM E-score
26 | ACCCCTCA | -0.252
27 | CTACCCCA | -0.119
28 | AGCAGCGG | -0.305
29 | ACCGCTCT | -0.237
30 | CTGATCTA | 0.0695
31 | GTGCTGTA | -0.00064
32 | GAGACCGC | -0.32
33 | CGCTTGTC | -0.0955
34 | CATGAATC | -0.00158
35 | CCAGCATC | -0.141
36 | AATCGTAA | 0.323
37 | CCGAGTCA | -0.208
38 | TACCCGGA | -0.0109
39 | GATAAAAC | 0.167
40 | CCAATGGC | -0.21
41 | AGTCAGCC | -0.09
42 | CACTAGGC | -0.247
43 | AGGAGTGG | -0.191
44 | CACCAAAA | 0.111
45 | CAATCATA | 0.236
46 | TAAGGGCA | -0.00876
47 | ACCAGGGC | -0.235
48 | ATCGGTAG | -0.0793
49 | AACACTGC | 0.0957
50 | ACTACGGA | -0.036

Row | Sequence | PBM E-score
51 | ATTCAAGC | 0.106
52 | TCTGGTCA | -0.0951
53 | ATAAAGAA | 0.167
54 | AAAAGGTA | 0.0261
55 | ACTCCGAA | -0.148
56 | CATGTAAA | 0.179
57 | ACTATTAG | -0.0278
58 | TAGTCATA | 0.216
59 | AATACCAT | 0.196
60 | GGAAGACA | -0.177
61 | CAAATGAA | 0.127
62 | TCCCCCCA | -0.205
63 | CCCGCAGA | -0.282
64 | GCCTTGAA | -0.129
65 | AATCCTAG | -0.0162
66 | ATGCGATA | -0.0138
67 | GCGGTTTA | -0.0812
68 | ATGCGAGG | 0.0459
69 | AAAACCCC | -0.331
70 | TCTACACA | 0.0808
71 | AAGTTCCA | -0.0591
72 | ATAGTTTG | 0.0325
73 | CAAGGGCC | -0.293
74 | AGCCACGC | -0.0218
75 | AAATTGCC | 0.102

Row | Sequence | PBM E-score
76 | TAAAGTTA | 0.331
77 | GAGGCTCC | -0.187
78 | CCGCGACC | -0.335
79 | CCCGGTCG | -0.381
80 | ATGGCTCC | -0.249
81 | AAACGTTC | 0.12
82 | AGCTAGAA | -0.048
83 | AGCTGAGA | -0.0858
84 | CAGCAACG | 0.204
85 | GGACGACC | -0.288
86 | AGTGCACG | 0.076
87 | CGATTGCC | -0.0166
88 | CGCCGCAA | 0.0119
89 | ACTTGACT | -0.0842
90 | CGCTCCTA | 0.027
91 | CAATATGC | -0.111
92 | AGGTTTTA | -0.121
93 | ATCGCGTC | 0.295
94 | AGCAAAAG | -0.114
95 | CCTAGAAA | 0.00019
96 | CTCGATAC | 0.203
97 | AAGTGTAT | 0.0856
98 | CCTATCAA | -0.119
99 | CAGCGGCG | -0.192
100 | CGCAGGAA | -0.144

Row | Sequence | PBM E-score
101 | TACTTAAA | 0.0436
102 | AACGCTGA | 0.0912
103 | TGTAAAAA | -0.0197
104 | CAGGATGA | -0.0146
105 | ATGCGTTC | 0.149
106 | AACTAGCT | 0.0319
107 | GAACGGCC | -0.314
108 | ATCGGAGA | -0.203
109 | AGTGCTAG | -0.209
110 | AAACAGGG | -0.262
111 | AAGTCCTA | 0.0174
112 | ACCCCGAA | -0.0339
113 | ACGCTTGC | -0.0935
114 | AAAGACGC | -0.0197
115 | GTGAACAA | 0.173
116 | AATCTGTC | -0.00887
117 | ACGATACA | 0.128
118 | ACTACCCC | -0.311
119 | TATCTCCA | -0.122
120 | CTATACAC | -0.107
121 | CCTGCCAA | -0.265
122 | CTACTTGC | 0.0717
123 | AGAGGACG | -0.0401
124 | GGGTGGGA | -0.137
125 | AGAAGGCG | -0.279

Row | Sequence | PBM E-score
126 | CTGGATCC | -0.226
127 | GAACTCTC | -0.189
128 | AATACGGT | 0.121
129 | GATCCTTA | 0.0168
130 | CACCAAAC | 0.144
131 | ACACGCAT | 0.219
132 | ATTACTTG | 0.137
133 | ATGCGCTG | -0.0588
134 | CCCCCCAA | -0.25
135 | GAGGAACA | 0.0293
136 | CCCGTGGA | -0.274
137 | CTGTGACC | -0.22
138 | GCGCCTAC | -0.139
139 | CCGCCGTA | -0.282
140 | AACCAGGA | -0.158
141 | TAGCAAAA | 0.145
142 | GTGACCAC | -0.13
143 | CTACCATA | -0.12
144 | CCTAGACC | -0.0487
145 | AAAAGCTC | 0.0185
146 | CGTGTAAA | 0.211
147 | CGCCACGC | -0.0376
148 | CTATAGAG | -0.222
149 | CCTTGGTC | -0.23
150 | AAATTCGT | 0.339

Row | Sequence | PBM E-score
151 | AACTCTAT | -0.186
152 | TCCCTGAA | 0.012
153 | CTAGTCTA | -0.172
154 | AATCTTTA | 0.184
155 | CCCGGTAA | -0.206
156 | ACTACTAA | 0.0432
157 | ACCAGTTG | -0.0516
158 | CAGACAAC | -0.0568
159 | ATGTAACC | 0.101
160 | CCTACTGA | -0.0932
161 | ACACGGAG | -0.13
162 | CTCTTTCC | -0.279
163 | ACTCGGTG | -0.166
164 | AAACTTGG | -0.0696
165 | ATAGCCTC | -0.17
166 | TGTCAACA | 0.152
167 | GCCGGATA | -0.0275
168 | GGGTTTCA | -0.138
169 | GGTCCCGA | -0.278
170 | CGCGCTAC | -0.0053
171 | AGCGCCTA | -0.108
172 | CAGCTTTA | 0.153
